The other results are listed elsewhere or left out. Viral Rep nickase domains cut single-stranded DNA in vitro (3 µM enzyme, 1 h, 37 °C); shown is the middle of each 90-letter strand. The score is log2 (uncut reads / reads without enzyme); uncut sequences lie near 0, cut ones below; no hit call is given. Shares of all reads are compared; values above 0 arise when much of the pool is cut.
Tests used:
Assay in all cases: uncleaved DNA left, log2 of reads against the no-enzyme library (log2 ratio); higher = less cleavage (more negative = more Rep cleavage of the k-mer); sequences stand for … in CTCGTCCG…ACCGGAGA
[1] = system: T1, Rep nickase domain of Muscovy duck circovirus
T1 sequence (Rep 1-111, printed without the tag): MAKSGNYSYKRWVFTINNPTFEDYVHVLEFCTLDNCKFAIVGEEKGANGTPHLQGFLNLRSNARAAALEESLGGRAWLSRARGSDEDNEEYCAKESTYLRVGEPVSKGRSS
Description: (§1)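 A pool of 90-nt single-stranded DNAs with seven random bases just before the constant AC of the nick site (name = the seven bases) was cut by 3 µM recombinant His6-SUMO-tagged Rep nickase domain (300 nM DNA, 50 mM HEPES pH 8.0, 50 mM NaCl, 1 mM MnCl2, 1 h, 37 °C, three replicates). Uncut DNA was amplified and sequenced.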

[2] = system: T2, Rep nickase domain of banana bunchy top virus
T2 sequence (Rep 1-94, printed without the tag): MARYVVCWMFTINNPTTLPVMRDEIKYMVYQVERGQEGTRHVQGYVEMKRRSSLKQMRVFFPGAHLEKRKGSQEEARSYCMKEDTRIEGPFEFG
Description: as §1

[3] = system: T3, Rep nickase domain of cabbage leaf curl virus
T3 sequence (Rep 1-116, printed without the tag): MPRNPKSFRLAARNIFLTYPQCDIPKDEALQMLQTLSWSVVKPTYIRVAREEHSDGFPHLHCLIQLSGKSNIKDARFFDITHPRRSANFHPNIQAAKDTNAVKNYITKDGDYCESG
Description: as §1

[4] = system: T4, Rep nickase domain of chickpea chlorotic dwarf virus
T4 sequence (Rep 1-124, printed without the tag): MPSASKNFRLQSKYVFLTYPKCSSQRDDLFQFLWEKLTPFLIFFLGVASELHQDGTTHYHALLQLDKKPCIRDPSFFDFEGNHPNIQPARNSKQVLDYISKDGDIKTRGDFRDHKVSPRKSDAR
Description: as §1

[5] = system: T5, Rep nickase domain of faba bean necrotic yellows virus
T5 sequence (Rep 1-98, printed without the tag): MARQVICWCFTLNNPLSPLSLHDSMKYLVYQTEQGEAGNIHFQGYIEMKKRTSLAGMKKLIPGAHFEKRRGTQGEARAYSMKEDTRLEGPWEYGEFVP
Description: as §1

[6] = system: T6, Rep nickase domain of maize striate mosaic virus
T6 sequence (Rep 1-117, printed without the tag): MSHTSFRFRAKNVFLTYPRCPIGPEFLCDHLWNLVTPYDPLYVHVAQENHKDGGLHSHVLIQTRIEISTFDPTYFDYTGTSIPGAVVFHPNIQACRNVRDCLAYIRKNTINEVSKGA
Description: as §1

[7] = system: T7, Rep nickase domain of porcine circovirus 2
T7 sequence (Rep 2-116, printed without the tag): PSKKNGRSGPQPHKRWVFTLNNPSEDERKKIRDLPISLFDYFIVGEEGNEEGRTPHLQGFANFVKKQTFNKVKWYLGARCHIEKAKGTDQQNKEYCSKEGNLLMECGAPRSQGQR
Description: as §1

[8] = system: T8, Rep nickase domain of tomato golden mosaic virus
T8 sequence (Rep 1-124, printed without the tag): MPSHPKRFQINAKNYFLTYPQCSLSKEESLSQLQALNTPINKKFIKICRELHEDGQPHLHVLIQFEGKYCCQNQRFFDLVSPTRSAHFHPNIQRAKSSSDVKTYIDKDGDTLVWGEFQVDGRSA
Description: as §1

[9] = system: T9, Rep nickase domain of tomato yellow leaf curl virus
T9 sequence (Rep 1-136, printed without the tag): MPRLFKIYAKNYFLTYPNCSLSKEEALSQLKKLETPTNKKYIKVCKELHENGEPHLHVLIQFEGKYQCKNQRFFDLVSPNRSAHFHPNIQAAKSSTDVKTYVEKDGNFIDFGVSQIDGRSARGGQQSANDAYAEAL
Description: as §1

[10] = system: T10, Rep nickase domain of wheat dwarf virus
T10 sequence (Rep 1-137, printed without the tag): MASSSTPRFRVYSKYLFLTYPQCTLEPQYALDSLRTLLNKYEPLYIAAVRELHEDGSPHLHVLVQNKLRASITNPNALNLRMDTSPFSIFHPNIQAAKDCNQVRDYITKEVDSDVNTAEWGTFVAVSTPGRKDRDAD
Description: as §1

| Sequence | uncleaved DNA left (log2) [1] | uncleaved DNA left (log2) [2] | uncleaved DNA left (log2) [3] | uncleaved DNA left (log2) [4] | uncleaved DNA left (log2) [5] | uncleaved DNA left (log2) [6] | uncleaved DNA left (log2) [7] | uncleaved DNA left (log2) [8] | uncleaved DNA left (log2) [9] | uncleaved DNA left (log2) [10] |
| --- | --- | --- | --- | --- | --- | --- | --- | --- | --- | --- |
| CCGCGTA | -0.176 | -0.069 | -0.482 | -0.495 | -0.022 | -0.672 | -0.0366 | -0.12 | -0.074 | -0.168 |
| CCAGTTC | 0.0764 | -0.139 | 0.0725 | -1.03 | 0.00368 | -0.914 | 0.13 | -0.0377 | -0.0788 | -0.194 |
| GCCGCGG | -0.114 | -0.108 | 0.0903 | 0.463 | 0.0545 | 0.323 | 0.108 | 0.0129 | -0.0264 | -0.0726 |
| GACACGA | 0.0859 | 0.0821 | -0.162 | -0.143 | -0.0014 | -0.541 | 0.061 | -0.112 | -0.0382 | 0.00757 |
| CCTCGGT | -0.0289 | -0.043 | 0.293 | 0.811 | 0.047 | 1.15 | 0.116 | -0.0681 | -0.0376 | -0.0679 |
| CACTCGT | -0.0893 | -0.526 | -0.783 | -2.11 | -0.183 | -1.27 | -3.01 | -0.164 | -0.0867 | -0.275 |
| CGACTGG | 0.0369 | -0.115 | -0.103 | 0.555 | -0.069 | 1.4 | 0.0746 | -0.0558 | -0.0285 | 0.166 |
| ACTAAAA | -0.0324 | 0.116 | -0.0822 | -0.0335 | 0.0323 | -0.562 | 0.147 | 0.0708 | -0.0441 | 0.0291 |
| ACGTGAA | -0.134 | -0.133 | -0.211 | -0.00482 | 0.0483 | -0.394 | -0.153 | -0.137 | 0.00737 | 0.000419 |
| TATGTCA | -0.00887 | 0.0584 | 0.107 | -1.55 | -0.00604 | -0.533 | -0.173 | -0.0253 | 0.15 | 0.0791 |
| GAGGAAG | 0.185 | 0.025 | -0.114 | 0.168 | -0.0731 | -0.456 | 0.0884 | 0.076 | 0.00577 | -0.0621 |
| TACTTCT | -3.66 | -3.32 | -3.08 | -3.26 | -0.199 | -1.21 | -4.08 | -0.667 | 0.0295 | -0.505 |
| AAGTTCT | -2.08 | -2.75 | -0.609 | -3.03 | -1.71 | -0.133 | -4.49 | -0.106 | -0.148 | -0.094 |
| TCATGTG | 0.00821 | -0.102 | -0.806 | -0.424 | -0.0266 | -0.965 | 0.163 | -0.052 | -0.0184 | -0.266 |
| CTAGACA | 0.0366 | 0.0707 | 0.253 | -0.998 | -0.00145 | 0.0706 | 0.0405 | -0.0232 | 0.0164 | 0.156 |
| TTATCCT | -2.51 | 0.0219 | -1.44 | -2.31 | -0.0931 | -0.496 | -1.65 | -0.391 | -0.0348 | -0.33 |
| CACTGTA | -0.0392 | -0.257 | 0.0674 | -0.391 | 0.0198 | 0.395 | -2.83 | 0.177 | 0.21 | 0.0834 |
| TATACCA | -0.0437 | -0.0199 | 0.0551 | -2 | 0.0382 | 0.33 | -0.263 | -0.00434 | 0.0645 | 0.0968 |
| TAACGGG | -0.0439 | -0.0296 | -0.45 | -0.678 | -0.0859 | -0.63 | 0.053 | 0.046 | -0.0517 | -0.105 |
| GAGTATG | 0.066 | -0.111 | -0.111 | 0.242 | 0.0334 | 0.247 | -0.293 | 0.0764 | 0.161 | 0.0674 |
| TGTACTA | -0.105 | -0.0379 | 0.0364 | -0.472 | -0.168 | 0.56 | -0.198 | -0.132 | 0.0523 | 0.0517 |
| GGGTAGA | -0.0085 | 0.12 | 0.832 | 1.96 | 0.0388 | 2.21 | 0.261 | -0.000265 | 0.152 | 0.156 |
| ACGTTAC | 0.0623 | 0.0621 | -0.332 | -1.63 | -0.0136 | -0.773 | 0.194 | 0.064 | -0.0552 | -0.0771 |
| CCAGAAG | 0.0839 | 0.145 | -0.506 | -0.247 | 0.254 | -0.954 | 0.247 | 0.031 | 0.0657 | -0.00608 |
| AGTACAG | 0.0898 | 0.146 | -0.256 | -0.505 | 0.0482 | -0.539 | 0.17 | -0.0189 | 0.143 | 0.0407 |
| CCAGGAG | 0.251 | 0.23 | -0.234 | 0.476 | 0.22 | -0.568 | 0.37 | 0.379 | 0.13 | 0.266 |
| GTAGAAA | 0.131 | 0.163 | 0.449 | 0.992 | 0.0239 | 1.75 | 0.205 | 0.222 | 0.21 | 0.225 |
| GAACCCA | -0.136 | 0.00418 | 0.211 | -0.787 | -0.0788 | 0.904 | -0.514 | -0.0665 | 0.033 | 0.113 |
| ACCCCAA | -0.132 | -0.0754 | -0.144 | -0.288 | -0.0477 | -0.417 | -0.125 | 0.0459 | -0.098 | -0.00879 |
| GCCAGCG | -0.178 | -0.0725 | -0.642 | 0.814 | 0.0174 | -0.24 | 0.025 | -0.0803 | -0.159 | -0.192 |

Reference: the supplement of paper PMC7826260
